# Assay results published in the supplement of paper PMC8728848.
# The other results are listed elsewhere or left out.
# Columns and labels:
# Assay in all cases: glycan array binding signal (z-score within array); higher = stronger binding
# Conditions in all cases: glycan notation: IUPAC condensed, linker removed; mutation: F355A
# [1] = biological target: Man(a1-3)[Man(a1-6)]Man(a1-6)[Man(a1-2)Man(a1-3)]Man(b1-4)GlcNAc(b1-4)GlcNAc
# How it was run: (§1)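 Columns mapping to the same glycan were averaged after glycan names were converted to IUPAC-condensed notation. The data come from 3228 arrays in the Consortium for Functional Glycomics database, limited to those with an available protein sequence. Binding is reported as a within-array Z-score averaged across arrays of one protein sequence and across linkers.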
# [2] = biological target: Man(a1-3)[Man(a1-6)]Man(a1-6)[Man(a1-3)]Man
# How it was run: as §1
# [3] = biological target: Man(a1-3)[Man(a1-6)]Man(a1-6)[Man(a1-3)]Man(b1-4)GlcNAc(b1-4)GlcNAc
# How it was run: as §1
# [4] = biological target: Man(a1-3)[Man(a1-6)]Man(b1-4)GlcNAc(b1-4)GlcNAc
# How it was run: as §1
# [5] = biological target: Man(a1-6)Man
# How it was run: as §1
# [6] = biological target: Man(b1-4)GlcNAc
# How it was run: as §1
# [7] = biological target: Neu5Ac(a2-3)Gal
# How it was run: as §1
# [8] = biological target: Neu5Ac(a2-3)Gal(b1-3)GalNAc
# How it was run: as §1
# [9] = biological target: Neu5Ac(a2-3)Gal(b1-3)GalNAc(b1-3)Gal(a1-4)Gal(b1-4)Glc
# How it was run: as §1
# [10] = biological target: Neu5Ac(a2-3)Gal(b1-3)GalNAc(b1-3)Gal(b1-4)GlcNAc
# How it was run: as §1
# [11] = biological target: Neu5Ac(a2-3)Gal(b1-3)GalNAc(b1-4)[Neu5Ac(a2-3)]Gal(b1-4)Glc
# How it was run: as §1
# [12] = biological target: Neu5Ac(a2-3)Gal(b1-3)GalNAc6S
# How it was run: as §1
# [13] = biological target: Neu5Ac(a2-3)Gal(b1-3)GlcNAc
# How it was run: as §1
# [14] = biological target: Neu5Ac(a2-3)Gal(b1-3)GlcNAc(b1-3)Gal(b1-3)GlcNAc
# How it was run: as §1
# [15] = biological target: Neu5Ac(a2-3)Gal(b1-3)GlcNAc6S
# How it was run: as §1
# [16] = biological target: Neu5Ac(a2-3)Gal(b1-3)[Fuc(a1-4)]GlcNAc
# How it was run: as §1
# [17] = biological target: Neu5Ac(a2-3)Gal(b1-3)[Fuc(a1-4)]GlcNAc(b1-3)Gal(b1-4)[Fuc(a1-3)]GlcNAc
# How it was run: as §1
# [18] = biological target: Neu5Ac(a2-3)Gal(b1-3)[Neu5Ac(a2-3)Gal(b1-4)]GlcNAc
# How it was run: as §1
# [19] = biological target: Neu5Ac(a2-3)Gal(b1-3)[Neu5Ac(a2-6)]GalNAc
# How it was run: as §1
# [20] = biological target: Neu5Ac(a2-3)Gal(b1-4)Glc
# How it was run: as §1
# [21] = biological target: Neu5Ac(a2-3)Gal(b1-4)GlcNAc
# How it was run: as §1
# [22] = biological target: Neu5Ac(a2-3)Gal(b1-4)GlcNAc(b1-2)Man(a1-3)[GlcNAc(b1-2)Man(b1-4)GlcNAc(b1-2)Man(a1-6)]Man(b1-4)GlcNAc(b1-4)GlcNAc
# How it was run: as §1
# [23] = biological target: Neu5Ac(a2-3)Gal(b1-4)GlcNAc(b1-2)Man(a1-3)[Neu5Ac(a2-6)Gal(b1-4)GlcNAc(b1-2)Man(a1-6)]Man(b1-4)GlcNAc(b1-4)GlcNAc
# How it was run: as §1
# [24] = biological target: Neu5Ac(a2-3)Gal(b1-4)GlcNAc(b1-3)Gal(b1-3)GlcNAc
# How it was run: as §1
# [25] = biological target: Neu5Ac(a2-3)Gal(b1-4)GlcNAc(b1-3)Gal(b1-4)GlcNAc
# How it was run: as §1
# [26] = biological target: Neu5Ac(a2-3)Gal(b1-4)GlcNAc(b1-3)Gal(b1-4)GlcNAc(b1-3)Gal(b1-4)GlcNAc
# How it was run: as §1
# [27] = biological target: Neu5Ac(a2-3)Gal(b1-4)GlcNAc(b1-3)Gal(b1-4)[Fuc(a1-3)]GlcNAc
# How it was run: as §1
# [28] = biological target: Neu5Ac(a2-3)Gal(b1-4)GlcNAc(b1-6)[Gal(b1-3)]GalNAc
# How it was run: as §1
# [29] = biological target: Neu5Ac(a2-3)Gal(b1-4)GlcNAc(b1-6)[Neu5Ac(a2-3)Gal(b1-3)]GalNAc
# How it was run: as §1
# [30] = biological target: Neu5Ac(a2-3)Gal(b1-4)GlcNAc6S
# How it was run: as §1
# [31] = biological target: Neu5Ac(a2-3)Gal(b1-4)[Fuc(a1-3)]GlcNAc
# How it was run: as §1
# [32] = biological target: Neu5Ac(a2-3)Gal(b1-4)[Fuc(a1-3)]GlcNAc(b1-3)Gal
# How it was run: as §1
# [33] = biological target: Neu5Ac(a2-3)Gal(b1-4)[Fuc(a1-3)]GlcNAc(b1-3)Gal(b1-4)GlcNAc
# How it was run: as §1
# [34] = biological target: Neu5Ac(a2-3)Gal(b1-4)[Fuc(a1-3)]GlcNAc(b1-3)Gal(b1-4)[Fuc(a1-3)]GlcNAc(b1-3)Gal(b1-4)[Fuc(a1-3)]GlcNAc
# How it was run: as §1
# [35] = biological target: Neu5Ac(a2-3)Gal(b1-4)[Fuc(a1-3)]GlcNAc(b1-6)[Gal(b1-3)]GalNAc
# How it was run: as §1
# [36] = biological target: Neu5Ac(a2-3)Gal(b1-4)[Fuc(a1-3)]GlcNAc6S
# How it was run: as §1
# [37] = biological target: Neu5Ac(a2-3)Gal6S(b1-4)GlcNAc
# How it was run: as §1
binder,measurement,setting,value
Surfactant Protein D (Human); Neck + Carbohydrate Recognition Domain (NCRD) (Homo sapiens) (protein) MLLFLLSALVLLTQPLGYLEAEMKTYSHRTMPSACTLVMCSSVESGLPGRDRDGREGPRGEKGDPGLPGAAGQAGMPGQAGPVGPKGDNGSVGEPGPKGDTGPSGPPGPPGVPGPAGREGALGKQGNIGPQGKPGPKGEAGPKGEVGAPGMQGSAGARGLAGPKGERGVPGERGVPGNTGAAGSAGAMGPQGSPGARGPPGLKGDKGIPGDKGAKGESGLPDVASLRQQVEALQGQVQHLQAAFSQYKKVELFPNGQSVGEKIFKTAQFVKPFTEAQLLCTQAGGQLASPRSAAENAALQQLVVAKNEAAFLSMTDSKTEGKFTYPTGESLVYSNWAPGEPNDDGGSEDCVEIFTNGKWNDRACGEKRLVVCEA,glycan array binding signal (z-score),[1],2.15
same,glycan array binding signal (z-score),[2],5.56
same,glycan array binding signal (z-score),[3],2.12
same,glycan array binding signal (z-score),[4],-0.103
same,glycan array binding signal (z-score),[5],-0.099
same,glycan array binding signal (z-score),[6],-0.133
same,glycan array binding signal (z-score),[7],-0.174
same,glycan array binding signal (z-score),[8],-0.164
same,glycan array binding signal (z-score),[9],-0.117
same,glycan array binding signal (z-score),[10],-0.087
same,glycan array binding signal (z-score),[11],-0.133
same,glycan array binding signal (z-score),[12],-0.139
same,glycan array binding signal (z-score),[13],-0.144
same,glycan array binding signal (z-score),[14],-0.141
same,glycan array binding signal (z-score),[15],-0.152
same,glycan array binding signal (z-score),[16],-0.157
same,glycan array binding signal (z-score),[17],-0.091
same,glycan array binding signal (z-score),[18],-0.12
same,glycan array binding signal (z-score),[19],-0.14
same,glycan array binding signal (z-score),[20],-0.129
same,glycan array binding signal (z-score),[21],-0.098
same,glycan array binding signal (z-score),[22],-0.059
same,glycan array binding signal (z-score),[23],-0.166
same,glycan array binding signal (z-score),[24],-0.15
same,glycan array binding signal (z-score),[25],-0.113
same,glycan array binding signal (z-score),[26],-0.156
same,glycan array binding signal (z-score),[27],-0.054
same,glycan array binding signal (z-score),[28],-0.161
same,glycan array binding signal (z-score),[29],-0.134
same,glycan array binding signal (z-score),[30],-0.121
same,glycan array binding signal (z-score),[31],-0.111
same,glycan array binding signal (z-score),[32],-0.071
same,glycan array binding signal (z-score),[33],-0.107
same,glycan array binding signal (z-score),[34],-0.115
same,glycan array binding signal (z-score),[35],0.381
same,glycan array binding signal (z-score),[36],-0.116
same,glycan array binding signal (z-score),[37],-0.126
